# Results published in the antibiotic and cytotoxicity screens of Wong et al. (2023).
# The other results are listed elsewhere or left out.
# Tests used:
# HSkMC = human skeletal muscle cells; test: cytotoxicity call (relative viability < 0.9); conditions: 10 µM
# HepG2 = test: cytotoxicity call (relative viability < 0.9); conditions: 10 µM
# S. aureus RN4220 = test: growth inhibition call (relative growth <= 0.2); conditions: 50 µM
Structure (SMILES),cytotoxicity call (HSkMC),cytotoxicity call (HepG2),growth inhibition call (S. aureus RN4220)
CN(C)CCCN1C(=O)[C@@]2(Cc3ccccc31)c1ccccc1C(=O)N(Cc1ccccc1)[C@H]2c1ccc(CO)cc1,inactive,inactive,inactive
Cc1cc(-c2ccccc2)nc(SCc2ccccc2)c1C#N,inactive,active,inactive
NC[C@H]1CCN(c2ccc(Oc3ccccc3)cc2)C1,inactive,active,inactive
C[C@H](CO)N1C[C@H](C)[C@@H](CN(C)Cc2ccncc2)Oc2cc(C#CC(C)(C)O)ccc2S1(=O)=O,inactive,inactive,inactive
C[C@H](CO)N1C[C@H](C)[C@@H](CN(C)C(=O)c2cnccn2)Oc2cc(C3=CCCC3)ccc2S1(=O)=O,inactive,inactive,inactive
COCC(=O)N1C[C@H](C)[C@H](OC)CN(C)C(=O)c2cc(NC(=O)c3cc(C)on3)ccc2OC[C@H]1C,inactive,inactive,inactive
C[C@@H]1CN([C@H](C)CO)C(=O)CCCn2nncc2CO[C@@H]1CN(C)S(=O)(=O)c1ccc(-n2cccn2)cc1,inactive,inactive,inactive
CC(=O)NC(Cc1ccccc1)C(=O)O (stereo unspecified),inactive,inactive,inactive
Cc1ccc2[nH]c(=O)c(C3=NN(C(=O)CCC(=O)O)[C@H](c4ccc(Br)cc4)C3)c(-c3ccccc3)c2c1,inactive,inactive,inactive
COCC#Cc1ccc2c(c1)O[C@@H](CN(C)C(=O)Nc1ccccc1F)[C@H](C)CN([C@@H](C)CO)S2(=O)=O,inactive,inactive,inactive
CN1CCN(C(=O)C[C@H]2C[C@H]3c4cc(NS(=O)(=O)c5ccc(F)cc5)ccc4O[C@H]3[C@@H](CO)O2)CC1,inactive,inactive,inactive
C[C@@H]1CN([C@@H](C)CO)C(=O)c2cc(NC(=O)Nc3ccc(C(F)(F)F)cc3)ccc2O[C@@H](C)CCCCO[C@@H]1CN(C)CC1CCCCC1,inactive,active,inactive
CC(C)c1cccc(NC(=O)C[C@H]2CC[C@H]3[C@@H](COc4ccc(NC(=O)c5ccc(C#N)cc5)cc4C(=O)N3C)O2)c1,inactive,inactive,inactive
Cc1ccc(S(=O)(=O)Nc2ccc3c(c2)CC(=O)N([C@H](C)CO)C[C@H](C)[C@H](CN(C)S(=O)(=O)c2c(C)noc2C)O3)cc1,inactive,inactive,inactive
FC(F)(F)c1nnc2n1CCNC2,inactive,inactive,inactive
CNc1nc(N2CCCC2)nc(N)c1[N+](=O)[O-],inactive,inactive,inactive
CN(C)c1cc(CNCC(C)(C)C)c(O)c2c1C[C@H]1C[C@H]3[C@H](N(C)C)C(=O)[C@H](C(N)=O)C(=O)[C@@]3(O)C(=O)[C@@H]1C2=O,inactive,inactive,active
Cc1noc(C)c1NC(=O)N(C)C[C@@H]1OCCCC[C@@H](C)Oc2ccc(NC(=O)c3ccccc3)cc2C(=O)N([C@H](C)CO)C[C@@H]1C,inactive,inactive,inactive
C[C@@H]1CN([C@H](C)CO)C(=O)c2cc(NC(=O)CCCCCC(=O)Nc3ccccc3N)ccc2O[C@H]1CN(C)Cc1ccc(-c2ccccc2)cc1,active,active,inactive
C[C@@H]1CCCCO[C@H](CN(C)S(=O)(=O)c2ccc(Cl)cc2)[C@@H](C)CN([C@H](C)CO)C(=O)c2cc(NS(=O)(=O)c3ccc(Cl)cc3)ccc2O1,inactive,inactive,inactive
C[C@@H]1CN([C@@H](C)CO)C(=O)c2cc(NC(=O)Cc3ccccc3)ccc2O[C@@H](C)CCCCO[C@H]1CN(C)C(=O)Nc1cccc2ccccc12,inactive,inactive,inactive
O=C(O)c1ccccc1Nc1cccc(C(F)(F)F)c1,inactive,inactive,inactive
CNS(=O)(=O)c1ccc2[nH]c(=O)[nH]c2c1,inactive,inactive,inactive
C[C@@H]1CN([C@H](C)CO)C(=O)c2cc(NC(=O)C3CCCCC3)ccc2O[C@H]1CN(C)Cc1ccc(Oc2ccccc2)cc1,inactive,inactive,inactive
C[C@H]1CCCCO[C@H](CN(C)C(=O)Nc2ccccc2)[C@@H](C)CN([C@@H](C)CO)C(=O)c2cc(NC(=O)Nc3ccc4c(c3)OCO4)ccc2O1,inactive,inactive,inactive
COc1ccc(S(=O)(=O)N[C@@H]2CC[C@@H](CCNC(=O)CN3CCOCC3)O[C@H]2CO)cc1,inactive,inactive,inactive
O=C(O)c1ccc(N2CCCS2(=O)=O)cc1,inactive,inactive,inactive
